PubChem BioAssay AID652106 (National Center for Advancing Translational Sciences (NCATS), 2013)
In all, about 370,000 compounds went through this assay and about 500 (0.14%) were called active. The shares of active, inactive and inconclusive entries below differ from those in the screen. Calls come from the whole dose curve; as a rule, active = well fitted activation curve with a large enough effect; inconclusive = small, poorly fitted or top-dose-only effect; inactive = no such curve, though single readings can be large or run the other way. Potencies of inconclusive entries are left out as doubtful fits.
Potency is the fitted concentration of half-maximal effect; tags give direction and shape of the fitted curve.

Experiment: qHTS of alpha-syn Inhibitors; note: nearly all actives have a fitted effect of over 65% in size; for growth rescue (activation): % of control where 0% means no effect
Conditions: Yeast expressing alpha-synuclein, BacTiter-Glo, 24 h; Potency: growth rescue unless noted; growth rescue (activation): at 46.1 µM (top of the series) unless noted
Outline: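 Galactose-induced alpha-syn yeast (OD600=0.02, raffinose-pregrown) + pinned cpd, 24 hr, 30 deg C; growth by BacTiter-Glo luminescence. Growth restoration scores as activation.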
With `COc1ccc(OCCCC(=O)Nc2nc(-c3ccccn3)cs2)cc1` the “growth rescue (activation)” value was inactive: 1.63%. For `O=C(CO)N/N=C/c1ccc(Cl)cc1`, the Potency was inconclusive [activator, single point]. For `O=C(Nc1ccc(C(=O)O)cc1)/C(=C\c1ccc2c(c1)OCO2)NC(=O)c1ccccc1Cl`, the Potency was inconclusive [activator, single point]. With `O=c1[nH]c(SCc2ccc(Cl)cc2)nc2[nH]ncc12` the Potency was inconclusive [activator, single point]. With `Fc1ccc(-c2nc3c(Cl)cc(C(F)(F)F)cn3c2Cc2cccc(F)c2)cc1` the “growth rescue (activation)” value was inactive: 7.27%. With `COc1ccc(C(=O)N2CCN(S(=O)(=O)c3ccc(C)cc3C)CC2)cc1OC` the Potency was inconclusive [activator, single point]. With `N#Cc1ccc(C(=O)N2CCN(S(=O)(=O)c3ccc(Cl)s3)CC2)cc1` the “growth rescue (activation)” value was inactive: -6.73%. In the case of `Cc1ccc2c(C)c(C(=O)N(C)C(C)c3ccon3)oc2c1C` (centres undefined), the Potency is reported as inconclusive [activator, single point]. For `Cc1cc(Nc2nc(Cl)c(Cl)cc2Cl)n(-c2ccccc2)n1`, the “growth rescue (activation)” value was inactive: 0.381%. In the case of `Brc1ccc(OCc2nc(-c3ccccn3)n[nH]2)cc1`, the Potency is reported as inconclusive [activator, single point]. For `CCOc1ccccc1NC(=O)C(NCCN(C)C)c1ccccc1` (centres undefined), the “growth rescue (activation)” value was inactive: 2.41%. With `O=C(/C=C/c1ccccc1)Nc1cccc(C(=O)NCCCc2ccccc2)c1` the “growth rescue (activation)” value was inactive: 0.363%. In the case of `CC(C)(C)c1ccc(OCC(=O)NNC(=S)NC(=O)c2ccccc2[N+](=O)[O-])c(Br)c1`, the Potency is reported as inconclusive [activator, single point]. With `CC(=O)Nc1ccc(S(=O)(=O)NC2(C(F)(F)F)NC(=O)N(C3CCCCC3)C2=O)cc1` (centres undefined) the Potency was inconclusive [activator, single point]. With `CCN(CC)CCCNc1ccc(-c2nnc(-c3ccc(OCC(C)C)cc3)o2)cn1` the Potency was inconclusive [activator, single point]. With `Cc1ccc([C@@H]2CC=C(C(=O)O)[C@H](c3ccc(F)cc3)N2S(=O)(=O)c2ccccc2C)cc1` the “growth rescue (activation)” value was inactive: -7.45%. For `O=C(NC(=S)N1CCN(c2ccc(F)cc2)CC1)c1cccs1`, the Potency was inconclusive [activator, single point]. With `C/C(=N/NS(=O)(=O)c1ccc(Cl)cc1)c1cccc(NC(=O)c2ccc(Cl)cc2Cl)c1` the “growth rescue (activation)” value was inactive: 5.8%. With `CN(C)C(CNC(=O)c1ccco1)c1cccs1` (centres undefined) the “growth rescue (activation)” value was inactive: 2.3%. With `CCOc1ccc(CCNC(=O)COC(=O)c2cc([N+](=O)[O-])ccc2N2CCOCC2)cc1OCC` the Potency was inconclusive [activator, single point]. For `COc1cccc(C(=O)CSc2nnnn2C2CCCCC2)c1`, the Potency was inconclusive [activator, single point]. With `COc1ccccc1N1CCN(C(c2cccs2)c2nnnn2C2CCCC2)CC1` (centres undefined) the Potency was inconclusive [activator, single point]. With `CCCn1nnc(NC(=O)c2ccc(-c3cccc(Cl)c3)o2)n1` the “growth rescue (activation)” value was inactive: 6.13%. With `Cc1ccc(C2=Nc3ccccc3N=C(c3ccco3)C2)c(O)c1` the “growth rescue (activation)” value was inactive: -15.2%. For `CC(=O)OC[C@@H]1CN(Cc2ccccc2)C[C@H](n2cnc3c(N4CCCC4)ncnc32)O1`, the Potency was inconclusive [activator, single point]. With `C=CCn1c(N)c(C(=O)OC(C)(C)C)c2nc3ccccc3nc21` the Potency was inconclusive [activator, single point]. For `O=c1ccc(-c2ccccc2)nn1Cc1ccccc1F`, the “growth rescue (activation)” value was inactive: 5.33%. For `O=C(Nc1nccs1)c1ccc2sc([C@H]3C[C@H](O)[C@@H](CO)O3)nc2c1`, the Potency was inconclusive [activator, single point]. For `O=C(Nc1cccc(C(F)(F)F)c1)C1Cc2c(-c3cccc(F)c3)ccnc2O1` (centres undefined), the Potency was inconclusive [activator, single point]. In the case of `CC(C)CCN1C(=O)c2ccc(C(=O)NCC3CCCO3)cc2C1=O` (centres undefined), the Potency is reported as inconclusive [activator, single point]. With `CCn1c2ccccc2c2cc(NS(=O)(=O)c3ccccc3C)ccc21` the Potency was inconclusive [activator, single point]. In the case of `COC(=O)C1CN(C(=O)C(C)Oc2ccc(F)cc2)c2ccccc2O1` (centres undefined), the Potency is reported as inconclusive [activator, single point]. For `COc1cccc(CC(=O)N2CCCC(CCC(=O)N3CCN(c4ccccn4)CC3)C2)c1` (centres undefined), the Potency was inconclusive [activator, single point]. In the case of `CCOC(=O)c1cnc2c(ccc3ccccc32)c1NCCCN(C)C`, the Potency is reported as inconclusive [activator, single point]. In the case of `Cc1c(C)c2ccc(O)c(CN3CCN(C)CC3)c2oc1=O`, the Potency is reported as inconclusive [activator, single point]. In the case of `Cc1nc2ccc(S(=O)(=O)Nc3cccc(-c4nc5cccnc5s4)c3)cc2s1`, the Potency is reported as inconclusive [activator, single point]. For `CCC1(C)CC(=O)N(c2ccc(F)c(Cl)c2)C(=O)C1`, the “growth rescue (activation)” value was inactive: 9.31%. In the case of `CN(Cc1ccccc1)c1c([N+](=O)[O-])c(=O)n(C)c2ccccc12`, the Potency is reported as inconclusive [activator, single point]. For `Cc1cc(=O)oc2c(C)c3occc3cc12`, the Potency was inconclusive [activator, single point]. In the case of `CCc1ccc2c(c1)NC(=O)C2(C)Cc1ccc(Cl)cc1` (centres undefined), the Potency is reported as inconclusive [activator, single point]. In the case of `Cc1nc2ccc(NS(=O)(=O)c3ccc(F)cc3F)cc2s1`, the “growth rescue (activation)” value is reported as inactive: 20.1%. For `CCCCCc1ccc(-c2ccc(/C=C/C(=O)O)cc2)nc1`, the Potency was inconclusive [activator, partial curve]. In the case of `Cc1ccc(C)c2c1[nH]c1ccccc12`, the “growth rescue (activation)” value is reported as inactive: 4.52%. For `C=CCOn1c(C)c(C(C)=O)c2c3no[n+]([O-])c3ccc21`, the “growth rescue (activation)” value was inactive: 5.45%. In the case of `CCCN1CCN(CCCNC(=O)c2cc3c(s2)-c2ccccc2OC3)CC1`, the Potency is reported as inconclusive [activator, single point]. For `O=C(N/N=C/C=C/c1ccccc1)NC1CCCCC1`, the Potency was inconclusive [activator, single point]. For `O=C(c1cccc(Cl)c1)N1CCC(=O)N(C(COCc2cccc(Cl)c2)Cc2ccccc2)CC1` (centres undefined), the Potency was inconclusive [activator, single point]. For `CC1CC(C)(C)CC2(C1)NC(=O)N(CC(=O)N1CCN(S(=O)(=O)c3ccc(F)c(F)c3F)CC1)C2=O` (centres undefined), the Potency was inconclusive [activator, single point]. In the case of `CS(=O)(=O)N(CC(=O)N1CCCCCC1)c1ccc(Br)cc1`, the Potency is reported as inconclusive [activator, single point]. For `Cc1nn(Cc2c(F)c(F)c(F)c(F)c2F)c(C)c1NC(=O)c1ccc(COc2ccc(Cl)cc2Cl)o1`, the Potency was inconclusive [activator, single point]. With `COC(=O)c1nccc2c1[nH]c1ccccc12` the Potency was inconclusive [activator, single point]. For `O=c1cc(CSc2ccc(S(=O)(=O)N3CCCCC3)cn2)nc2sccn12`, the growth rescue (activation) was inconclusive: -32.8% [activator]. With `CCCCCCCCN1C(=O)[C@H](CC(=O)NCCCOCCCC)C[C@@]2(C(=O)OC)CC(C)(C)CC=C12` the Potency was inconclusive [activator, single point]. For `CCOC(=O)C1CCCN(S(=O)(=O)c2ccc3ccccc3c2)C1` (centres undefined), the Potency was inconclusive [activator, partial curve]. With `O=C(OCC(=O)N1CCOCC1)c1cc(=O)[nH]c2ccccc12` the Potency was inconclusive [activator, single point]. With `CC(C)N(C(=O)[C@H]1CC(CC(=O)NCC23CC4CC(CC(C4)C2)C3)C(=O)N2CCc3c([nH]c4ccccc34)[C@]12C)C(C)C` (some centres undefined) the Potency was inconclusive [activator, single point]. For `C(=N\Nc1nncc2ccccc12)/c1ccccn1`, the Potency was inconclusive [activator, single point]. In the case of `COc1ccccc1NC(=O)CN1C(=O)CCSc2ccccc21`, the Potency is reported as inconclusive [activator, single point]. In the case of `Oc1ccc(Nc2nc(-c3cccnc3)cs2)cc1`, the “growth rescue (activation)” value is reported as inactive: -4.41%. For `Cc1cc(C(=O)CN2CCCCC2)c(C)n1-c1ccc(F)cc1`, the “growth rescue (activation)” value was inactive: 0.35%. With `CC(=O)c1cccc(OCc2cc(C(=O)N(C)Cc3nccs3)no2)c1` the Potency was inconclusive [activator, single point]. For `O=C(COC(=O)Cc1c[nH]c2ccccc12)Nc1cccc(Br)c1`, the Potency was inconclusive [activator, single point]. With `CC(C)(C)c1cc(CCC(=O)NNC(=O)c2ccncc2)cc(C(C)(C)C)c1O` the Potency was inconclusive [activator, single point]. In the case of `CCOc1ccc(N/C=C/C(=O)c2ccc(OC)c(OC)c2)cc1`, the Potency is reported as inconclusive [activator, full curve]. With `O=C(/C=C/c1ccccc1)NC(=S)NNC(=O)Cc1cccs1` the Potency was active: 20 µM. In the case of `Cc1ccc(-n2nc3c(c2NC(=O)c2ccco2)CS(=O)C3)cc1` (centres undefined), the “growth rescue (activation)” value is reported as inactive: -2.8%. With `O=C(CS(=O)(=O)Cc1ccccc1)Nc1nnc(C(F)(F)F)s1` the Potency was inconclusive [activator, single point]. With `COc1ccc(Cc2nnc(SC)n2-c2ccc(F)cc2)cc1OC` the Potency was inconclusive [activator, single point]. For `CCc1ccc(CN(C)C(=O)c2cc(COc3cc(C)c(Cl)c(C)c3)on2)nc1`, the Potency was inconclusive [activator, single point].
